Measured values from PubChem BioAssay AID1159614 (National Center for Advancing Translational Sciences (NCATS), 2016).
Out of some 45,000 compounds screened, about 65 (0.1%) were called active. The call rests on the fitted dose curve; in most records, active means well fitted activation curve with a large enough effect; inconclusive means small, poorly fitted or top-dose-only effect; inactive means no such curve, though single readings can be large or run the other way. Some of the results follow.

Each molecule was assayed against Galactocerebrosidase (Homo sapiens) (UniProt P54803) (assay: A Novel Cell-Based Assay to Identify Small Molecules for B -Galactocerebrosidase). Conditions: 145M-Twi-hGALC-G270D cells, HMU-beta-Gal fluorescence, 48 h; series mostly up to 57.5 µM; activation: at the top concentration.
Summary of the method: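 qHTS, 1536-well; 145M-Twi-hGALC-G270D cells (WT line also made) in DMEM/F12 + 10% FBS; compound incubation on live cells; HMU-β-gal 0.1 mM final, pH 5.2, NaTC; carbonate stop; fluorescence increase = enhanced residual activity.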
Further: 0% is about no effect; nearly all actives have a fitted effect of over 65% in size.

Sequence of UniProt P54803 (P54803 whole entry, looked up): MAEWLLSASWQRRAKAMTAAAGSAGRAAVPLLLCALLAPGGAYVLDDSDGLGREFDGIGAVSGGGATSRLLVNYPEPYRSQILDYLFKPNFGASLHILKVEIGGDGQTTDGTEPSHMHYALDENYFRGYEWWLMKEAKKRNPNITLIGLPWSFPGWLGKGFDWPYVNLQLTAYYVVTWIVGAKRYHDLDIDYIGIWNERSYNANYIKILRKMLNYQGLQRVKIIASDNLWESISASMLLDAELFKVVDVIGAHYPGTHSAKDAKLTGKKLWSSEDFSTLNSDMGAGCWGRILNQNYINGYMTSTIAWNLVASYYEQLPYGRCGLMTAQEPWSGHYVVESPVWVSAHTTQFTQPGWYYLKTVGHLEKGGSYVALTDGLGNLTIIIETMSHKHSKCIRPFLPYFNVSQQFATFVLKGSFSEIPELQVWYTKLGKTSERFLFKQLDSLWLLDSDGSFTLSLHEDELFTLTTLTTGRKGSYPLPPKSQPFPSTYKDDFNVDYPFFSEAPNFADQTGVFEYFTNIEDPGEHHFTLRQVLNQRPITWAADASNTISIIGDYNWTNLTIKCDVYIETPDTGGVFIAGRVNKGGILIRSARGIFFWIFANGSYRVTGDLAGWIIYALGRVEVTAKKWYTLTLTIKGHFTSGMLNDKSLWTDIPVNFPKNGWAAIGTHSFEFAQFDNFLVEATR

Compound	activation
Cc1cc(C)cc(NC(=O)CCCc2nc(-c3ccco3)no2)c1	inactive: -12.3%
COc1ccc(C)cc1NC(=O)c1cc(S(=O)(=O)N2CCCCC2)c[nH]1	inactive: -7.37%
COc1ccccc1C(=O)Oc1ccc(C(c2c(C)[nH][nH]c2=O)c2c(C)[nH][nH]c2=O)cc1	inactive: -21.8%
COC(=O)c1cc(-c2ccc(C)cc2)c2c(=O)n(C)c(=O)n(C)c2n1	inactive: 2.28%
OCCN(CCO)c1ncnc2c1cnn2-c1ccc(F)cc1	inactive: -3.15%
Cc1nc(-c2ccc(F)cc2)sc1CCNC(=O)C(=O)Nc1ccc2c(c1)OCCO2	inactive: -9.14%
O=C(CCCn1c(=O)c2cccn2c2ccccc21)NCCc1ccc(Cl)cc1	inactive: -12%
Cc1ccc(S(=O)(=O)NC(=O)NN2CC3CCCC3C2)cc1 (centres undefined)	inactive: -9.95%
CSc1nn(Cc2ccc(C)cc2)c(N)c1S(=O)(=O)c1ccccc1	inactive: -13.7%
COc1cccc(CNC(=O)c2cc(S(=O)(=O)N3CCCCC3)c[nH]2)c1	inactive: -11.9%
COc1ccc(-c2cc(C(F)(F)F)nc(NCCc3ccccc3)n2)cc1OC	inactive: -6.05%
Cc1csc2nc(COC(=O)c3ccccc3NC(=O)c3ccc(C(C)(C)C)cc3)cc(=O)n12	inactive: -4.48%
COc1ccc(CC(=O)Nc2ccc(-c3nc4ccccc4s3)c(C)c2)cc1OC	inactive: 0.328%
COc1ccc2oc(=O)c(C(=O)N3CCN(c4ccc(C)cc4)CC3)cc2c1	inactive: -18.1%
Cc1cc(C)n(-c2nc3ccccc3nc2N2CCN(c3cccc(C(F)(F)F)c3)CC2)n1	inactive: -10.4%
O=C(NCc1ccccc1Cl)c1ccc2oc(=O)n(Cc3ccccc3)c2c1	inactive: -13.6%
Cc1c(CC(=O)NCc2ccc(F)cc2)c(=O)oc2cc(O)c(Cl)cc12	inactive: -19%
COc1ccc(NC(=O)CC2NCCNC2=O)c(OC)c1 (centres undefined)	inactive: -2.79%
CCOc1cccc2sc(N(Cc3cccnc3)C(=O)c3ccc(C#N)cc3)nc12	inactive: -11.3%
CCOC(=O)c1c(NC(=O)C2c3ccccc3Oc3ccccc32)sc(C)c1C	inactive: 1.95%
Cc1ccc(-n2c(SCc3ccccc3)nc3c([nH]c4ccccc43)c2=O)cc1	inactive: -4.71%
Cc1cccc(-n2nc(C)c(C(=O)Nc3cc(C)ccc3C)c2-n2cccc2)c1	inactive: -7.85%
Cc1cc(NC(=O)CCNS(=O)(=O)c2cccc3nsnc23)ccc1Br	inactive: 4.82%
Cc1ccc(NC(=O)c2ccccc2Br)c(C(=O)c2ccccc2)c1	inactive: -5.39%
Cc1nnc(NC(=O)c2ccccc2)s1	inactive: -14.8%

Compound	activation
CCC1(C)Cc2c(sc3nc(SC)n(-c4ccc(C)cc4)c(=O)c23)CO1 (centres undefined)	inactive: -10.6%
COc1ccc(CNC(=O)c2ccc3nc(-c4ccc(F)cc4)c(-c4ccc(F)cc4)nc3c2)cc1	inactive: -10.6%
O=C(Nc1ccc(-c2nc3cc(Cl)ccc3o2)cc1)c1cc2ccccc2o1	inactive: -19.3%
CC1CCN(c2nc3ccc(C(=O)NCc4ccccc4)cc3s2)CC1	inactive: -11.8%
COc1ccc(Cn2c(SCc3ccc(C(=O)NC(C)c4ccccc4)cc3)nc3cccnc32)cc1 (centres undefined)	inactive: -11.3%
CC(=O)c1c(C)oc2c1cc(NS(=O)(=O)c1ccc(Cl)c(C)c1)c1ccccc12	inactive: -12%
O=S(=O)(NCc1nc2cccnc2n1Cc1ccccc1Cl)c1ccc(F)c(Cl)c1	inactive: -21.7%
COc1cc(NC(=O)CCCOc2cc(=O)n(C)c3ccccc23)cc(OC)c1OC	inactive: 3.41%
CCOC(=O)CNC(=O)N1CCN(c2nnc(C)c3c(C)n(-c4ccc(Cl)cc4)nc23)CC1	inactive: -5.21%
COc1ccc(OC)c(NC(=O)Cn2c(=O)cc(-c3ccccc3)c3c(C)nn(C)c32)c1	inactive: -6.59%
CCOc1ccc(N(Cc2ccccc2)C(=O)c2nc(S(C)(=O)=O)ncc2Cl)cc1	inactive: -8.45%
CCc1ccc(S(=O)(=O)c2nnn3c2nc(Nc2ccc(NC(C)=O)cc2)c2sccc23)cc1	inactive: -15.2%
Cc1cccc(N2CCN(C(=O)CS(=O)(=O)Cc3nc(-c4ccccc4C)oc3C)CC2C)c1 (centres undefined)	inactive: -2.2%
CCOC(=O)C1CCCN(Cc2cn3c(-c4cccc(Br)c4)nnc3s2)C1 (centres undefined)	inactive: -1.57%
Cc1nc(-c2ccc(C)c(N3CCN(C(=O)Nc4cccc(Cl)c4C)CC3)c2)no1	inactive: -11.4%
Cc1ccc(-n2c(Cc3ccccc3)nnc2SCc2nc(-c3cccs3)no2)cc1C	inactive: -1.37%
O=C(Nc1ccc(Cl)cc1)C(NS(=O)(=O)c1cccs1)c1ccccc1 (centres undefined)	inactive: 0.516%
Cc1cccc(OCC(=O)Nc2nnc(S(=O)(=O)N3CCc4ccccc43)s2)c1	inactive: -14.5%
O=C(O)CCC(=O)OC[C@@H](NC(=O)C(Cl)Cl)[C@H](O)c1ccc([N+](=O)[O-])cc1	inactive: -11.6%
Cc1ccc2oc(=O)c3cnn(CC(=O)NCc4ccccc4Cl)c3c2c1	inactive: -21.9%
CCc1ccc(-n2c(=O)c3c4c(sc3n(Cc3ccc(F)cc3)c2=O)CCCC4)cc1	inactive: 2.71%
COc1ccc(CNC(=O)c2cccc(N3CCCS3(=O)=O)c2)cc1	inactive: -17.4%
O=C1[C@@H]2CSC(c3ccc(F)cc3)N2C(=O)N1c1ccc(Cl)cc1 (some centres undefined)	inactive: -16.4%
Nc1ncc(S(=O)(=O)NCc2cccc(Cl)c2)cn1	inactive: -21.3%
O=C(Cn1c(=O)n2nc(-c3ccccc3)nc2c2ccccc21)Nc1ccccc1C(F)(F)F	inactive: -8.4%

Compound	activation
COc1ccc2cc(CCC(C)=O)ccc2c1	inactive: -15.5%
COc1ccc(S(=O)(=O)N(Cc2nc(-c3ccc(C)cc3)no2)C2CCCCC2)cc1	inactive: -11%
Cc1ccc(C)n1-c1nnc(N2CCC(C(=O)NCc3ccccc3Cl)CC2)s1	inactive: -7.95%
Cc1ccc(-c2nc(CCNC(=O)C(=O)Nc3ccc(C)c(C)c3)cs2)cc1	inactive: -7.39%
CCOC(=O)CNC(=O)Nc1cc(C(=O)NCc2cccc(F)c2)ccc1N1CCCC1	inactive: -12.2%
CS(=O)(=O)c1ccc2nc(NC(=O)CS(=O)(=O)c3ccc(Cl)cc3)sc2c1	inactive: -3.6%
Cc1ccc(-c2nc3scc(CCNC(=O)c4cccc(Br)c4)n3n2)cc1	inactive: -2.31%
COc1ccccc1NC(=O)C1CCCN(c2nnc(C)c3c(C)n(-c4ccccc4)nc23)C1 (centres undefined)	inactive: -12.8%
COc1ccc(NC(=O)c2ccc3nc(CCc4ccccc4)oc3c2)cc1	inactive: -3.43%
CCCCC12CN3CC(C)(CN(C1)C3c1cc(Br)ccc1O)C2=O (centres undefined)	inactive: -31.7%
O=C(Cn1c(=O)n(Cc2ccco2)c(=O)c2cccnc21)Nc1ccccc1F	inactive: -22%
CCCN(CCC)C(=O)Cn1c(=O)n(-c2cccc(C(F)(F)F)c2)c(=O)c2c(C)c(C)sc21	inactive: -17.3%
CCOc1cc(C(=O)Nc2ccc(-c3nc4cc(C)ccc4o3)cc2)cc(OCC)c1OCC	inactive: -15.2%
O=C(Nc1ccc2nc(SCC(=O)N3CCCC3)sc2c1)c1ccccc1	inactive: -5.39%
CCOc1ccccc1NC(=O)CSc1nc2ccccc2c2nc(CCn3cncc3C)nn12	inactive: -25.2%
Cc1ccc(NC2=C(c3ccc(C(F)(F)F)cc3)C(=O)c3ccccc32)cc1F	inactive: 2.89%
O=C(NCC(c1cccnc1)N1CCc2ccccc21)c1ccccc1Br (centres undefined)	inactive: -10.5%
CCCCCC(C)N (centres undefined)	inactive: -13.7%
COc1ccc(CNC(=O)Cn2c(SCC(=O)N(C)c3ccccc3)nc3ccccc32)cc1	inactive: -16.5%
CCCCn1c(=O)n(-c2ccc(Br)cc2F)c(=O)c2c3c(sc21)CN(C(C)=O)CC3	inactive: 3.52%
COc1cc(C(=O)Nc2ccc3nn(-c4ccc(F)cc4)nc3c2)cc(OC)c1OC	inactive: -10.8%
CCOC(=O)c1noc2nc(C)n(CC(=O)Nc3cc(Cl)ccc3OC)c(=O)c12	inactive: -27.5%
Cc1ccc(OCC(=O)Nc2c(C(=O)c3ccccc3)oc3ccccc23)cc1C	inactive: -8.4%
CC1=C(C(=O)OCC2CCCCC2)C(c2ccc(F)cc2F)CC(=O)N1 (centres undefined)	inactive: -7.15%
COc1ccccc1CNC(=O)C(=O)NCC(c1cccs1)S(=O)(=O)c1ccc(F)cc1 (centres undefined)	inactive: -7.57%

Compound	activation
Oc1c(C(c2ccccc2)N2CCN(Cc3ccccc3)CC2)sc2nc(-c3ccco3)nn12 (centres undefined)	inactive: -26.6%
Cc1ccc(CNC(=O)C2CCN(S(=O)(=O)N3CCC(C)CC3)CC2)cc1	inactive: -14.8%
Cc1csc2nc(COC(=O)c3ccc(NC(=O)COc4ccccc4F)cc3)cc(=O)n12	inactive: -16.2%
CC(=O)Nc1nnc(SCc2cc(=O)c3cc(C)ccc3[nH]2)s1	inactive: -32.7%
CC1=C(C(=O)Nc2ccccc2)C(c2ccccc2)n2nc(-c3ccco3)nc2N1 (centres undefined)	inactive: -15.2%
COc1ccc(NC(=O)Cn2c(SCc3cccc(Cl)c3)nc3ccncc32)c(OC)c1OC	inactive: -13.5%
NC(=O)NC1N=C([O][Al])NC1=O (centres undefined)	inactive: -9.88%
COc1cc(Cl)c(C)cc1NC(=O)CCc1nc2cccnc2n1-c1ccccc1	inactive: -16.3%
CCOc1ccccc1NC(=O)C(C)Sc1cc(-c2ccccc2)nc(C)n1 (centres undefined)	inactive: -12.2%
Cc1ccc(NCc2cccn2-c2nnc(N3CCCCCC3)s2)cc1	inactive: -20.3%
CCOc1ccccc1NC(=O)CCn1c(-c2ccc(OC)cc2)cc(C(C)=O)c1C	inactive: -0.0622%
CCn1cc(C(=O)O)c(=O)c2ccc(C)nc21	inactive: -13.5%
COc1ccc(-c2nnc(SCC(=O)Nc3cccc(F)c3)s2)cc1	inactive: -9.97%
CCCCNC(=O)C1CCN(S(=O)(=O)c2cc(Br)cc3c2N(C(=O)CC)CC3)CC1	inactive: -13.6%
Cn1c(=O)cc(SCC(=O)NCc2ccc(F)cc2)c2ccc(Cl)cc21	inactive: -21.8%
Cc1cccc(-c2nc(SCCCOc3ccccc3Cl)n3[nH]c(=O)cc3n2)c1	inactive: -25.8%
O=C(Nc1ccc(F)c(Cl)c1)N1CCN(C(=O)c2nsc3ccccc23)CC1	inactive: -6.18%
Cc1cc(C)cc(-n2c(SCC(=O)N3CCc4ccccc43)nc3c([nH]c4ccccc43)c2=O)c1	inactive: -8.03%
CC(=O)Nc1ccc(Nc2ncnc3c2c(-c2ccccc2)cn3-c2ccccc2)cc1	inactive: -17.4%
CCN1c2ccccc2-n2cccc2C12CCN(C(=O)Nc1ccccc1C(F)(F)F)CC2	inactive: 2.19%
C#CCN(C)Cc1ccccc1	inactive: -16.5%
CCOc1ccc(CNC(=O)Cn2c(=O)c3cccn3c3ccc(F)cc32)cc1	inactive: -1.56%
CCOc1ccc(OCC)c(NC(=O)C2CCCN(S(=O)(=O)c3ccc4c(c3)oc(=O)n4C)C2)c1 (centres undefined)	inactive: -10.6%
CCOc1ccc2nc(N3CCN(C(=O)CS(=O)(=O)c4ccc(F)cc4)CC3)sc2c1	inactive: -5.2%
